# “And” between values parts separate entries of the source, which are not always exact repeats. Equal values may be shown once. Among all 420,000 compounds or so, about 64,000 (15%) were called active. The shares of active, inactive and inconclusive entries below differ from those in the screen. Calls come from the whole dose curve; as a rule, active = well fitted inhibition curve with a large enough effect; inconclusive = small, poorly fitted or top-dose-only effect; inactive = flat fitted curve, though single readings scatter. No potency is given beside an inconclusive call; the fits are too rough.
# Experiment: qHTS for Inhibitors of human tyrosyl-DNA phosphodiesterase 1 (TDP1): qHTS in cells in absence of CPT; note: nearly all actives have a fitted effect of over 55% in size
# Details: DT40 Tdp1-/- hTDP1 cells, no CPT, ATP luminescence, 48 h; series mostly up to 46.2 µM
# Method in brief: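 Stably hTDP1-transfected Tdp1-null chicken DT40 cells were treated with library compounds minus camptothecin and grown for at least 48 hr at 37 °C, after which cellular ATP was quantified by luminescence.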
# Potency is the fitted concentration of half-maximal effect; tags give direction and shape of the fitted curve.
row,Compound,Potency
1,COc1ccc(Cl)cc1NC(=O)CN(C)C(=O)c1cn2ccccc2n1,"inconclusive [inhibitor, single point]"
2,CCOc1ccc(NC(=O)CCN2CCN(c3ccccc3F)CC2)cc1,"inconclusive [inhibitor, single point]"
3,COc1cc(NC(=O)CN2C(=O)C(=O)N(CC(C)C)C2=O)cc(OC)c1,inactive
4,O=C(O)C1=CCC(c2ccc(Cl)c(Cl)c2)N(S(=O)(=O)c2ccc(F)cc2)C1c1cccc(F)c1 (configuration not stated),inactive
5,Cc1cccc(C(c2sc3nc(-c4ccco4)nn3c2O)N2CCN(c3ccccc3F)CC2)c1 (configuration not stated),inactive
6,CCc1ccc2[nH]c(=O)c(CN(CCCN3CCOCC3)C(=O)Nc3ccccc3)cc2c1,active: 20.6 µM
7,CCC(=O)N1CCc2cc(S(=O)(=O)NCCC(=O)NCc3ccc(C)cc3)ccc21,"inconclusive [inhibitor, single point]"
8,CCCCn1c(N)c(-c2nc3ccccc3s2)c2c([N+](=O)[O-])nn(C)c(=O)c21,"inconclusive [inhibitor, single point]"
9,Cc1ccc(-c2nnn3c2nc(NCCc2ccc(S(N)(=O)=O)cc2)c2ccccc23)cc1,"inconclusive [inhibitor, partial curve, poor fit]"
10,CC(OC(=O)CCCC(=O)Nc1ccccc1)C(=O)c1ccccc1 (configuration not stated),"inconclusive [inhibitor, partial curve]"
11,CCNC(=O)NC(=O)C(C)Sc1nc2cc(C(=O)OC)ccc2c(=O)n1-c1ccccc1 (configuration not stated),"inconclusive [inhibitor, single point]"
12,Cc1noc(/C=C/c2ccco2)c1S(=O)(=O)N1CCC(C(=O)Nc2ccc(Cl)cn2)CC1,active: 18.4 µM
13,O=C(Cc1ccccc1)Nc1ccc(NC(=S)NC(=O)c2ccccc2)cc1,"inconclusive [inhibitor, full curve, poor fit]"
14,COc1cccc(-n2nnnc2S(C)(=O)=O)c1,active: 2.59 µM
15,O=c1cc(-c2c(O)c3ccccc3n(Cc3ccccc3)c2=O)[nH][nH]1,inactive
16,O=S(=O)(c1ccc(NC(=S)NCCC(c2ccccc2)c2ccccc2)cc1)N1CCOCC1,active: 23.1 µM
17,COC(=O)c1ccc(NS(=O)(=O)c2ccc3[nH]c4c(c3c2)CCCC4)cc1,active: 6.51 µM
18,CCN(C(=O)COC(=O)c1cccc2ccccc12)c1c(N)n(Cc2ccccc2)c(=O)[nH]c1=O,inactive
19,OCOCCCn1c(C2CCCN2c2nc(-c3ccc(F)cc3)cs2)nc2cc(Cl)c(N3CCCCC3)cc21 (configuration not stated),"inconclusive [inhibitor, single point]"
20,COc1ccccc1C(NC(=O)C1CCCCC1)c1c(O)ccc2ccccc12 (configuration not stated),"inconclusive [inhibitor, single point]"
21,O=C(NCCc1ccc(Cl)cc1)c1ccc2c(c1)N(Cc1ccc(F)cc1)C(=O)CS2,active: 29.1 µM

row,Compound,Potency
1,CCCOc1ccc(NC(=O)OC2CCN(C)CC2)cc1,"inconclusive [inhibitor, single point]"
2,O=C(N=Nc1c(O)[nH]c2ccc(Cl)cc12)c1cc(-c2cccs2)nc2ccccc12,"inconclusive [inhibitor, partial curve]"
3,CC(=O)N(Cc1cccnc1)c1cccc(-c2nc3ccccc3s2)c1,"inconclusive [inhibitor, single point]"
4,CCc1ccc(NC(=O)[C@H](CSCc2ccccc2)N2Cc3ccccc3C2=O)cc1,"inconclusive [inhibitor, single point]"
5,C[n+]1c(-c2ccccc2)cc2c(=Cc3ccc([N+](=O)[O-])cc3)c3ccccc3n21,active: 4.11 µM
6,O=C1COc2ccc(-c3cc(-c4ccccc4)c4c(n3)-c3ccccc3OC4)cc2N1,active: 9.2 µM
7,CCCn1c(SCC(O)c2ccccc2)nc2ccccc21 (configuration not stated),"inconclusive [inhibitor, single point]"
8,CCOc1ccccc1N1C(=O)CN(Cc2ccc(OC)c(OC)c2)C1=S,"inconclusive [inhibitor, single point]"
9,C[C@@H](O)[C@H]1O[C@]2(C)CCC[C@H]1O2,inactive
10,O=C(O)Cc1sc(-c2ccc(Cl)cc2)nc1-c1ccccc1,"inconclusive [inhibitor, single point]"
11,CC(C)CCNC(=O)C1CC2Cn3c(nc4cc(Cl)c(Cl)cc43)C2N1C (configuration not stated),active: 23.1 µM
12,O=C(Nc1ccc2c(c1)OCO2)c1cc(C2CCCN(C(=O)C3CCCCC3)C2)on1 (configuration not stated),"inconclusive [inhibitor, partial curve, poor fit]"
13,COc1ccc(C(CNC(=O)c2ccc(S(=O)(=O)Nc3cccc(C)c3C)cc2)N2CCOCC2)cc1 (configuration not stated),"inconclusive [inhibitor, single point]"
14,CN1CCN(CCCN2c3ccccc3Sc3ccc(S(=O)(=O)N(C)C)cc32)CC1,active: 6.4 µM and active: 23.1 µM
15,CN(C)c1ccc(-c2nc(-c3cccs3)c(-c3cccs3)[nH]2)cc1,active: 9.2 µM
16,Cc1ccc2nc(-c3ccccc3)cc(C(=O)NCC(c3ccco3)N(C)C)c2c1 (configuration not stated),"inconclusive [inhibitor, single point]"
17,Cc1ccc(C(=O)N2CCN(c3ccccc3)CC2)cc1S(=O)(=O)N1CCOCC1,"inconclusive [inhibitor, partial curve]"
18,CCNC(=S)Nc1scc(-c2ccccc2)c1C(=O)OCC,active: 23.1 µM
19,CC(CCc1ccccn1)C(=O)C(C)CCc1ccccn1 (configuration not stated),"inconclusive [inhibitor, single point]"
20,CCC(C)Sc1nc2c(c(=O)[nH]c(=O)n2C)n1CC(O)COc1ccccc1C (configuration not stated),"inconclusive [inhibitor, single point]"
21,Cc1ccc(CNC(=O)[C@]2(C)CCC[C@@]3(C)C4CC[C@@]5(C)C[C@]4(CCC32)CC5=O)cc1 (some centres not stated),"inconclusive [inhibitor, partial curve]"

# Source: PubChem BioAssay AID686978 (National Center for Advancing Translational Sciences (NCATS), 2013)
